Measurements as given in patent US20220119536A1 (Boehringer Ingelheim, published 2022).

Legend:
Assay in all cases: cell-based or functional assay
human TrkB receptor [1] = target: T1, human TrkB receptor (human, UniProt Q16620 32-822)
rat TrkB receptor = rat TrkB receptor (rat, UniProt Q63604 32-821)
human TrkB receptor [2] = target: T1, human TrkB receptor; remark: listed apart in the source
human VEGF-A = target: T2, human VEGF-A (human, UniProt P15692-4 27-191)
T2 sequence (looked up): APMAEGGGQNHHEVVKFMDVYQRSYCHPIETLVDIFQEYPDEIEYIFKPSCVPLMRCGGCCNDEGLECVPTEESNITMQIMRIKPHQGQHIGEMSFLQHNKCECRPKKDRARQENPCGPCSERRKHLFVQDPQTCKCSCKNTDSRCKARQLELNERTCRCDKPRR

T1 sequence (Q16620 32-822): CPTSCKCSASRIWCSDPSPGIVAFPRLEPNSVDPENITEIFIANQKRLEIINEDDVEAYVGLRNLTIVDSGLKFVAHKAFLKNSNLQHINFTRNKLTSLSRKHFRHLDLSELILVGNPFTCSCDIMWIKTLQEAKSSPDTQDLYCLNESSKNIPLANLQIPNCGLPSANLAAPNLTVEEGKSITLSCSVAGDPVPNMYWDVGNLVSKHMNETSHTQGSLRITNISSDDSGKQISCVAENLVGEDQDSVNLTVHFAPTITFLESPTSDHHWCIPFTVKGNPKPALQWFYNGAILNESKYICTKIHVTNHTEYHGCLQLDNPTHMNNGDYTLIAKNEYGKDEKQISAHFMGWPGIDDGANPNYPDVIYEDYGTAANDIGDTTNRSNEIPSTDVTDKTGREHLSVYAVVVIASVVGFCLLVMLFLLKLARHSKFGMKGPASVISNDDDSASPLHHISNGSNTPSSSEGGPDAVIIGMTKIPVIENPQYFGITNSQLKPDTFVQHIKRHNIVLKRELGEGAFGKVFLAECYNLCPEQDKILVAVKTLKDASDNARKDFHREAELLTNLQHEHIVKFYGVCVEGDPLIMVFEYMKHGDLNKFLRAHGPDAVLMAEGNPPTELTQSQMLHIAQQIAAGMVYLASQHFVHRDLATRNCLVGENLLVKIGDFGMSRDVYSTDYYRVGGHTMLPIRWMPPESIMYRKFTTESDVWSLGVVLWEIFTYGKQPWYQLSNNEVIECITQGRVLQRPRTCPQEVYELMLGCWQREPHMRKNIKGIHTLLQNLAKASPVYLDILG
Chain of rat TrkB receptor (Q63604 32-821): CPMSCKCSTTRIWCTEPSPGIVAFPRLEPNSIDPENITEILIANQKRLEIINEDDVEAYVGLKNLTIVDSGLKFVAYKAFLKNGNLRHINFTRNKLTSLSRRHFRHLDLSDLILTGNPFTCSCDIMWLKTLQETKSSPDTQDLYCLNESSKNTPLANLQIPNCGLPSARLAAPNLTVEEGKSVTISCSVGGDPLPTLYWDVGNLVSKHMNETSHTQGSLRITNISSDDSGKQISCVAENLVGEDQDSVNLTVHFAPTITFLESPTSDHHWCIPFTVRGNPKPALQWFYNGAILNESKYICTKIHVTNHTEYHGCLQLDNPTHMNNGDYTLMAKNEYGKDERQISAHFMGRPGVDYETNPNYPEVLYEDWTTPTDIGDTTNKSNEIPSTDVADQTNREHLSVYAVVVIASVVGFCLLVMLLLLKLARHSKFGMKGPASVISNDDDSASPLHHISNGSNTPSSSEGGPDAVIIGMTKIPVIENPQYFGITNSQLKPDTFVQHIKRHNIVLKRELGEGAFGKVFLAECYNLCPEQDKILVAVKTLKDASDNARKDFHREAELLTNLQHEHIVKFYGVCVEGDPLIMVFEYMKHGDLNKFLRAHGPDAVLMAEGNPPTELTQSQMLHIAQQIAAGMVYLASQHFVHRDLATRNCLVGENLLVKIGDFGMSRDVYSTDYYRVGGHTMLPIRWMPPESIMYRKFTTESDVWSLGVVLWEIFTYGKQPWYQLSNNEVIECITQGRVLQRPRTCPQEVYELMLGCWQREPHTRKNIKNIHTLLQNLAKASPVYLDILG

Binder	EC50 (pERK) (human TrkB receptor [1]) [nM]	EC50 (pTrkB) (human TrkB receptor [1]) [nM]	TrkB-phosphorylation efficacy (AlphaLISA counts) (rat TrkB receptor)	TrkB-phosphorylation efficacy relative to parental clone without CC bridge (%) (rat TrkB receptor)	TrkB-phosphorylation potency (EC50, nM) (rat TrkB receptor) [nM]	TrkB-phosphorylation efficacy (AlphaLISA counts) (human TrkB receptor [2])	TrkB-phosphorylation efficacy relative to parental clone without CC bridge (%) (human TrkB receptor [2])	TrkB-phosphorylation potency (EC50, nM) (human TrkB receptor [2]) [nM]	concentration for full inhibition of VEGF-induced HRMEC proliferation (human VEGF-A) [nM]
TPP-19986 (bispecific antibody, human IgG1, kappa) light: DIQLTQSPSSLSASVGDRVTITCSASQDISNYLNWYQQKPGKAPKVLIYFTSSLHSGVPSRFSGSGSGTDFTLTISSLQPEDFATYYCQQYSTVPWTFGQGTKVEIKRTVAAPSVFIFPPSDEQLKSGTASVVCLLNNFYPREAKVQWKVDNALQSGNSQESVTEQDSKDSTYSLSSTLTLSKADYEKHKVYACEVTHQGLSSPVTKSFNRGEC heavy: EVQLVESGGGLVQPGGSLRLSCAASGYDFTHYGMNWVRQAPGKGLEWVGWINTYTGEPTYAADFKRRFTFSLDTSKSTAYLQMNSLRAEDTAVYYCAKYPYYYGTSHWYFDVWGQGTLVTVSSASTKGPSVFPLAPSSKSTSGGTAALGCLVKDYFPEPVTVSWNSGALTSGVHTFPAVLQSSGLYSLSSVVTVPSSSLGTQTYICNVNHKPSNTKVDKRV[in this place human IgG1 Fc with changes]GGGGSGGGGSQVQLVQSGAEVKKPGASVKVSCKASGYTFTNYDIIWVRQAPGQGLEWMGYINPYNDGTKYNEKFKGRVTMTRDTSTSTVYMELSSLRSEDTAVYYCARLLKYRRFRYYAIDYWGQGTTVTVSSGGSEGKSSGSGSESKSTGGSDIQMTQSPSSLSASVGDRVTITCRTSENVYSNLAWYQQKPGKAPKLLIYAASNLQSGVPSRFSGSGSGTDYTFTISSLQPEDIATYYCQHFWGSPFTFGQGTKLEIK	0.406	2	–	–	–	–	–	–	–
TPP-22192 (bispecific antibody, human IgG1, kappa) light: DIQLTQSPSSLSASVGDRVTITCSASQDISNYLNWYQQKPGKAPKVLIYFTSSLHSGVPSRFSGSGSGTGFTLTISSLQPEDFATYYCQQYSTVPWTFGQGTKVEIKRTVAAPSVFIFPPSDEQLKSGTASVVCLLNNFYPREAKVQWKVDNALQSGNSQESVTEQDSKDSTYSLSSTLTLSKADYEKHKVYACEVTHQGLSSPVTKSFNRGEC heavy: QVQLVQSGGGLVQPGGSLRLSCAASGYDFTHYGMNWVRQAPGKGLEWVGWINTYTGEPTYAADFKRRFTFSLDTSKSTAYLQMNSLRAEDTAVYYCAKYPYYYGTSHWYFDVWGQGTLVTVSSASTKGPSVFPLAPSSKSTSGGTAALGCLVKDYFPEPVTVSWNSGALTSGVHTFPAVLQSSGLYSLSSVVTVPSSSLGTQTYICNVNHKPSNTKVDKRV[in this place human IgG1 Fc with changes]GGGGSGGGGSDIQMTQSPSSLSASVGDRVTITCRTSENVYSNLAWYQQKPGKAPKLLIYAASNLQSGVPSRFSGSGSGTDYTFTISSLQPEDIATYYCQHFWGSPFTFGQGTKLEIKGGSEGKSSGSGSESKSTGGSQVQLVQSGAEVKKPGASVKVSCKASGYTFTNYDIIWVRQAPGQGLEWMGYINPYNDGTKYNEKFKGRVTMTRDTSTSTVYMELSSLRSEDTAVYYCARLLKYRRFRYYAIDYWGQGTTVTVSS	–	–	21200	100	18.9	5640	100	12.2	–
TPP-22216 (bispecific antibody, human IgG1, kappa) light: DIQLTQSPSSLSASVGDRVTITCSASQDISNYLNWYQQKPGKAPKVLIYFTSSLHSGVPSRFSGSGSGTGFTLTISSLQPEDFATYYCQQYSTVPWTFGQGTKVEIKRTVAAPSVFIFPPSDEQLKSGTASVVCLLNNFYPREAKVQWKVDNALQSGNSQESVTEQDSKDSTYSLSSTLTLSKADYEKHKVYACEVTHQGLSSPVTKSFNRGEC heavy: QVQLVQSGGGLVQPGGSLRLSCAASGYDFTHYGMNWVRQAPGKGLEWVGWINTYTGEPTYAADFKRRFTFSLDTSKSTAYLQMNSLRAEDTAVYYCAKYPYYYGTSHWYFDVWGQGTLVTVSSASTKGPSVFPLAPSSKSTSGGTAALGCLVKDYFPEPVTVSWNSGALTSGVHTFPAVLQSSGLYSLSSVVTVPSSSLGTQTYICNVNHKPSNTKVDKRV[in this place human IgG1 Fc with changes]GGGGSGGGGSDIQMTQSPSSLSASVGDRVTITCRTSENVYSNLAWYQQKPGKAPKLLIYAASNLQSGVPSRFSGSGSGTDYTFTISSLQPEDIATYYCQHFWGSPFTFGCGTKLEIKGGSEGKSSGSGSESKSTGGSQVQLVQSGAEVKKPGASVKVSCKASGYTFTNYDIIWVRQAPGQCLEWMGYINPYNDGTKYNEKFKGRVTMTRDTSTSTVYMELSSLRSEDTAVYYCARLLKYRRFRYYAIDYWGQGTTVTVSS	–	–	25800	122	3.31	8410	149	4.33	0.25
TPP-19987 (bispecific antibody, human IgG1, kappa) light: DIQLTQSPSSLSASVGDRVTITCSASQDISNYLNWYQQKPGKAPKVLIYFTSSLHSGVPSRFSGSGSGTDFTLTISSLQPEDFATYYCQQYSTVPWTFGQGTKVEIKRTVAAPSVFIFPPSDEQLKSGTASVVCLLNNFYPREAKVQWKVDNALQSGNSQESVTEQDSKDSTYSLSSTLTLSKADYEKHKVYACEVTHQGLSSPVTKSFNRGEC heavy: EVQLVESGGGLVQPGGSLRLSCAASGYDFTHYGMNWVRQAPGKGLEWVGWINTYTGEPTYAADFKRRFTFSLDTSKSTAYLQMNSLRAEDTAVYYCAKYPYYYGTSHWYFDVWGQGTLVTVSSASTKGPSVFPLAPSSKSTSGGTAALGCLVKDYFPEPVTVSWNSGALTSGVHTFPAVLQSSGLYSLSSVVTVPSSSLGTQTYICNVNHKPSNTKVDKRV[in this place human IgG1 Fc with changes]GGGGSGGGGSGGGGSGGGGSQVQLVQSGAEVKKPGASVKVSCKASGYTFTNYDIIWVRQAPGQGLEWMGYINPYNDGTKYNEKFKGRVTMTRDTSTSTVYMELSSLRSEDTAVYYCARLLKYRRFRYYAIDYWGQGTTVTVSSGGSEGKSSGSGSESKSTGGSDIQMTQSPSSLSASVGDRVTITCRTSENVYSNLAWYQQKPGKAPKLLIYAASNLQSGVPSRFSGSGSGTDYTFTISSLQPEDIATYYCQHFWGSPFTFGQGTKLEIK	0.381	2.16	–	–	–	–	–	–	–
TPP-22204 (bispecific antibody, human IgG1, kappa) light: DIQLTQSPSSLSASVGDRVTITCSASQDISNYLNWYQQKPGKAPKVLIYFTSSLHSGVPSRFSGSGSGTGFTLTISSLQPEDFATYYCQQYSTVPWTFGQGTKVEIKRTVAAPSVFIFPPSDEQLKSGTASVVCLLNNFYPREAKVQWKVDNALQSGNSQESVTEQDSKDSTYSLSSTLTLSKADYEKHKVYACEVTHQGLSSPVTKSFNRGEC heavy: QVQLVQSGGGLVQPGGSLRLSCAASGYDFTHYGMNWVRQAPGKGLEWVGWINTYTGEPTYAADFKRRFTFSLDTSKSTAYLQMNSLRAEDTAVYYCAKYPYYYGTSHWYFDVWGQGTLVTVSSASTKGPSVFPLAPSSKSTSGGTAALGCLVKDYFPEPVTVSWNSGALTSGVHTFPAVLQSSGLYSLSSVVTVPSSSLGTQTYICNVNHKPSNTKVDKRV[in this place human IgG1 Fc with changes]GGGGSGGGGSQVQLVQSGAEVKKPGASVKVSCKASGYTFTNYDIIWVRQAPGQCLEWMGYINPYNDGTKYNEKFKGRVTMTRDTSTSTVYMELSSLRSEDTAVYYCARLLKYRRFRYYAIDYWGQGTTVTVSSGGSEGKSSGSGSESKSTGGSDIQMTQSPSSLSASVGDRVTITCRTSENVYSNLAWYQQKPGKAPKLLIYAASNLQSGVPSRFSGSGSGTDYTFTISSLQPEDIATYYCQHFWGSPFTFGCGTKLEIK	–	–	21800	111	2.01	7610	115	3.88	0.25
TPP-22180 (bispecific antibody, human IgG1, kappa) light: DIQLTQSPSSLSASVGDRVTITCSASQDISNYLNWYQQKPGKAPKVLIYFTSSLHSGVPSRFSGSGSGTGFTLTISSLQPEDFATYYCQQYSTVPWTFGQGTKVEIKRTVAAPSVFIFPPSDEQLKSGTASVVCLLNNFYPREAKVQWKVDNALQSGNSQESVTEQDSKDSTYSLSSTLTLSKADYEKHKVYACEVTHQGLSSPVTKSFNRGEC heavy: QVQLVQSGGGLVQPGGSLRLSCAASGYDFTHYGMNWVRQAPGKGLEWVGWINTYTGEPTYAADFKRRFTFSLDTSKSTAYLQMNSLRAEDTAVYYCAKYPYYYGTSHWYFDVWGQGTLVTVSSASTKGPSVFPLAPSSKSTSGGTAALGCLVKDYFPEPVTVSWNSGALTSGVHTFPAVLQSSGLYSLSSVVTVPSSSLGTQTYICNVNHKPSNTKVDKRV[in this place human IgG1 Fc with changes]GGGGSGGGGSQVQLVQSGAEVKKPGASVKVSCKASGYTFTNYDIIWVRQAPGQGLEWMGYINPYNDGTKYNEKFKGRVTMTRDTSTSTVYMELSSLRSEDTAVYYCARLLKYRRFRYYAIDYWGQGTTVTVSSGGSEGKSSGSGSESKSTGGSDIQMTQSPSSLSASVGDRVTITCRTSENVYSNLAWYQQKPGKAPKLLIYAASNLQSGVPSRFSGSGSGTDYTFTISSLQPEDIATYYCQHFWGSPFTFGQGTKLEIK	–	–	19700	100	4.21	6640	100	8.09	–
